Results: US11242407B2, “High-affinity anti-MERTK antibodies and uses thereof” (Rgenix, Inc., priority 2019, dated 2022)

Tested on: MERTK-expressing M2 macrophages

B1: z10: humanized anti-MERTK antibody; heavy chain SEQ ID NO: 112, light chain SEQ ID NO: 113 (antibody)
heavy: QVQLVQSGAEVKKPGASVKVSCKASGYTFTNYGMNWVRQAPGQGLEWMGWINTYTGEPTYADDFKGRVTFTTDTSTSTAYMELRSLRSDDMAVYYCARKSTVVSRYFDVWGQGTTVTVSSASTKGPSVFPLAPSSKSTSGGTAALGCLVKDYFPEPVTVSWNSGALTSGVHTFPAVLQSSGLYSLSSVVTVPSSSLGTQTYICNVNHKPSNTKVDKRV[human IgG1 Fc omitted]
light: DIQMTQSPSFLSASVGDRVTITCKASQDVGDAVTWYQQKPGKAPKLLIYWASTRHTGVPDRFSGSGSGTDFTLTISSLQPEDFATYYCQQYRSYPLTFGQGTKLEIKRTVAAPSVFIFPPSDEQLKSGTASVVCLLNNFYPREAKVQWKVDNALQSGNSQESVTEQDSKDSTYSLSSTLTLSKADYEKHKVYACEVTHQGLSSPVTKSFNRGEC
modifications: Antibody z10 Heavy Chain; Antibody z10/z11/z13 Light Chain
  viability of M2 macrophages (CellTiter-Glo 2.0): neither z10 nor z10-MMAE nor z10-SN-38 nor the MERTK inhibitor UNC1062 affect the viability
